{"source": "paper PMC12820563", "note": "The list shows a part of the results. The list includes weakly bound sequences."}
{"target": "T1, MBP-FoxP3dN (UniProt Q99JB6)", "T1 sequence": "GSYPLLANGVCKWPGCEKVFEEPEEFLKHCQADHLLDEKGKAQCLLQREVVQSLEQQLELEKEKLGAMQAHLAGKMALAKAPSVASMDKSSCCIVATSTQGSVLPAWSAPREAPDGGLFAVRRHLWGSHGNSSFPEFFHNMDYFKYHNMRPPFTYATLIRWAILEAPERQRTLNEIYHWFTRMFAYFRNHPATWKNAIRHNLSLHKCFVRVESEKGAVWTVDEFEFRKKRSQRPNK", "assay": "PD-seq (MBP pull-down with sequencing)", "details": "20 mM Tris-HCl pH 7.5, 100 mM NaCl, 1.5 mM MgCl2, 0.4 uM protein, 0.1 uM dsDNA library, 30 min, room temperature, amylose pull-down; high values mean tight binding; double strand, one strand shown"}
{"sequence": "GATGATTGTTCTCCCAGCTGATGAATTTGTTCTATCGAGTAAACAAATTTTCCTAATCTTTCTGTTCAAGCGCCATCTAC", "binding signal (RPM ratio (pull-down/input))": 1.48}
{"sequence": "GATGATTGTTCTCCCAGCTGATGAATTTATGCGCTCGAGTAAACAAATTTTCCTAATCTTTCTGTTCAAGCGCCATCTAC", "binding signal (RPM ratio (pull-down/input))": 1.41}
{"sequence": "GATGATTGTTCTCCCAGCTGATGAATTCTCATCGTCGAGTAAACAAATTTTCCTAATCTTTCTGTTCAAGCGCCATCTAC", "binding signal (RPM ratio (pull-down/input))": 0.326}
{"sequence": "GATGATTGTTCTCCCAGCTGATGAATTGAAACACTCGAGTAAACAAATTTTCCTAATCTTTCTGTTCAAGCGCCATCTAC", "binding signal (RPM ratio (pull-down/input))": 0.636}
{"sequence": "GATGATTGTTCTCCCAGCTGATGAATTATGAGTTTCGAGTAAACAAATTTTCCTAATCTTTCTGTTCAAGCGCCATCTAC", "binding signal (RPM ratio (pull-down/input))": 2.02}
{"sequence": "GATGATTGTTCTCCCAGCTGATGAATTACTCACGTCGAGTAAACAAATTTTCCTAATCTTTCTGTTCAAGCGCCATCTAC", "binding signal (RPM ratio (pull-down/input))": 0.349}
{"sequence": "GATGATTGTTCTCCCAGCTGATGAATTGCCGTAATCGAGTAAACAAATTTTCCTAATCTTTCTGTTCAAGCGCCATCTAC", "binding signal (RPM ratio (pull-down/input))": 0.9}
{"sequence": "GATGATTGTTCTCCCAGCTGATGAATTCCACGTGTCGAGTAAACAAATTTTCCTAATCTTTCTGTTCAAGCGCCATCTAC", "binding signal (RPM ratio (pull-down/input))": 0.486}
{"sequence": "GATGATTGTTCTCCCAGCTGATGAATTTATGGGCTCGAGTAAACAAATTTTCCTAATCTTTCTGTTCAAGCGCCATCTAC", "binding signal (RPM ratio (pull-down/input))": 0.901}
{"sequence": "GATGATTGTTCTCCCAGCTGATGAATTTGCTGTCTCGAGTAAACAAATTTTCCTAATCTTTCTGTTCAAGCGCCATCTAC", "binding signal (RPM ratio (pull-down/input))": 6.16}
{"sequence": "GATGATTGTTCTCCCAGCTGATGAATTTCTTTAGTCGAGTAAACAAATTTTCCTAATCTTTCTGTTCAAGCGCCATCTAC", "binding signal (RPM ratio (pull-down/input))": 0.745}
{"sequence": "GATGATTGTTCTCCCAGCTGATGAATTAACCTTGTCGAGTAAACAAATTTTCCTAATCTTTCTGTTCAAGCGCCATCTAC", "binding signal (RPM ratio (pull-down/input))": 0.245}
{"sequence": "GATGATTGTTCTCCCAGCTGATGAATTCCCGAGTTCGAGTAAACAAATTTTCCTAATCTTTCTGTTCAAGCGCCATCTAC", "binding signal (RPM ratio (pull-down/input))": 0.355}
{"sequence": "GATGATTGTTCTCCCAGCTGATGAATTCCATGTCTCGAGTAAACAAATTTTCCTAATCTTTCTGTTCAAGCGCCATCTAC", "binding signal (RPM ratio (pull-down/input))": 0.592}
{"sequence": "GATGATTGTTCTCCCAGCTGATGAATTGATCTGCTCGAGTAAACAAATTTTCCTAATCTTTCTGTTCAAGCGCCATCTAC", "binding signal (RPM ratio (pull-down/input))": 0.268}
{"sequence": "GATGATTGTTCTCCCAGCTGATGAATTATTTGTCTCGAGTAAACAAATTTTCCTAATCTTTCTGTTCAAGCGCCATCTAC", "binding signal (RPM ratio (pull-down/input))": 2.46}
{"sequence": "GATGATTGTTCTCCCAGCTGATGAATTCCAATCCTCGAGTAAACAAATTTTCCTAATCTTTCTGTTCAAGCGCCATCTAC", "binding signal (RPM ratio (pull-down/input))": 0.331}
{"sequence": "GATGATTGTTCTCCCAGCTGATGAATTAAACTGATCGAGTAAACAAATTTTCCTAATCTTTCTGTTCAAGCGCCATCTAC", "binding signal (RPM ratio (pull-down/input))": 0.309}
{"sequence": "GATGATTGTTCTCCCAGCTGATGAATTTATCGCGTCGAGTAAACAAATTTTCCTAATCTTTCTGTTCAAGCGCCATCTAC", "binding signal (RPM ratio (pull-down/input))": 1.07}
{"sequence": "GATGATTGTTCTCCCAGCTGATGAATTAAGAGAATCGAGTAAACAAATTTTCCTAATCTTTCTGTTCAAGCGCCATCTAC", "binding signal (RPM ratio (pull-down/input))": 0.178}
{"sequence": "GATGATTGTTCTCCCAGCTGATGAATTTGTCCCGTCGAGTAAACAAATTTTCCTAATCTTTCTGTTCAAGCGCCATCTAC", "binding signal (RPM ratio (pull-down/input))": 2.84}
{"sequence": "GATGATTGTTCTCCCAGCTGATGAATTACGCGACTCGAGTAAACAAATTTTCCTAATCTTTCTGTTCAAGCGCCATCTAC", "binding signal (RPM ratio (pull-down/input))": 1.66}
{"sequence": "GATGATTGTTCTCCCAGCTGATGAATTGTTCCCGTCGAGTAAACAAATTTTCCTAATCTTTCTGTTCAAGCGCCATCTAC", "binding signal (RPM ratio (pull-down/input))": 0.277}
{"sequence": "GATGATTGTTCTCCCAGCTGATGAATTCCTCCGGTCGAGTAAACAAATTTTCCTAATCTTTCTGTTCAAGCGCCATCTAC", "binding signal (RPM ratio (pull-down/input))": 0.176}
{"sequence": "GATGATTGTTCTCCCAGCTGATGAATTTGATACTTCGAGTAAACAAATTTTCCTAATCTTTCTGTTCAAGCGCCATCTAC", "binding signal (RPM ratio (pull-down/input))": 0.986}
{"sequence": "GATGATTGTTCTCCCAGCTGATGAATTATGGAAGTCGAGTAAACAAATTTTCCTAATCTTTCTGTTCAAGCGCCATCTAC", "binding signal (RPM ratio (pull-down/input))": 0.235}
{"sequence": "GATGATTGTTCTCCCAGCTGATGAATTCATCTGCTCGAGTAAACAAATTTTCCTAATCTTTCTGTTCAAGCGCCATCTAC", "binding signal (RPM ratio (pull-down/input))": 0.337}
{"sequence": "GATGATTGTTCTCCCAGCTGATGAATTTCGCTGCTCGAGTAAACAAATTTTCCTAATCTTTCTGTTCAAGCGCCATCTAC", "binding signal (RPM ratio (pull-down/input))": 0.63}
{"sequence": "GATGATTGTTCTCCCAGCTGATGAATTTTAGCGGTCGAGTAAACAAATTTTCCTAATCTTTCTGTTCAAGCGCCATCTAC", "binding signal (RPM ratio (pull-down/input))": 0.285}
{"sequence": "GATGATTGTTCTCCCAGCTGATGAATTTTGGAACTCGAGTAAACAAATTTTCCTAATCTTTCTGTTCAAGCGCCATCTAC", "binding signal (RPM ratio (pull-down/input))": 0.245}
{"sequence": "GATGATTGTTCTCCCAGCTGATGAATTCGAGGATTCGAGTAAACAAATTTTCCTAATCTTTCTGTTCAAGCGCCATCTAC", "binding signal (RPM ratio (pull-down/input))": 0.338}
